The values below come from article PMC4823829.

The chains behind the UniProt entries cited, without tags or fusion partners.
UniProt P05804: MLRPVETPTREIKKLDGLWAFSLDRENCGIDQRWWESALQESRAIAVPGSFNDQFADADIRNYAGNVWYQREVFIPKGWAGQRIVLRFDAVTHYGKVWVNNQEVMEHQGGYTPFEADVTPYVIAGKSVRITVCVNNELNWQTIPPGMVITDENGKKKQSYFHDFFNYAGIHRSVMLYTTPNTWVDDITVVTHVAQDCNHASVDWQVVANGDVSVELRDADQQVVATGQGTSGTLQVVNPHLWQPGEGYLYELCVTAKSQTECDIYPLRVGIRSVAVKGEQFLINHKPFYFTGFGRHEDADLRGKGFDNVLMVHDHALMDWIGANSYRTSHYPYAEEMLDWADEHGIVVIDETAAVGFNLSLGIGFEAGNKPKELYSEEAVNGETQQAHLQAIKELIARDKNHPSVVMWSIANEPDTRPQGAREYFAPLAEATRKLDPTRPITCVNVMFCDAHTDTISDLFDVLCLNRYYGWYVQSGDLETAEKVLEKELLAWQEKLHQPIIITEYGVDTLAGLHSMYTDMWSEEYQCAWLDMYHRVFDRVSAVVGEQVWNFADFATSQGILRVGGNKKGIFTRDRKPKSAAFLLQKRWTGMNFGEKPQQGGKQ
UniProt Q9FHW7: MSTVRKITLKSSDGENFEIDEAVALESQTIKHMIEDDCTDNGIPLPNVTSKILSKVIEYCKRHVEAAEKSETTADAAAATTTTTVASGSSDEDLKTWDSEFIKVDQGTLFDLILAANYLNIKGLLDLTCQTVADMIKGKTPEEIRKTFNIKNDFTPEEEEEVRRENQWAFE
UniProt Q39255: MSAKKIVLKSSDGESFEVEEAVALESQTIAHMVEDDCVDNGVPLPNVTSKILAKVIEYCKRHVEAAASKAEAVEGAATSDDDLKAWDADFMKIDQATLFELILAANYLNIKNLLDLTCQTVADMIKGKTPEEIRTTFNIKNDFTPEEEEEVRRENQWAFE
UniProt Q94AH6: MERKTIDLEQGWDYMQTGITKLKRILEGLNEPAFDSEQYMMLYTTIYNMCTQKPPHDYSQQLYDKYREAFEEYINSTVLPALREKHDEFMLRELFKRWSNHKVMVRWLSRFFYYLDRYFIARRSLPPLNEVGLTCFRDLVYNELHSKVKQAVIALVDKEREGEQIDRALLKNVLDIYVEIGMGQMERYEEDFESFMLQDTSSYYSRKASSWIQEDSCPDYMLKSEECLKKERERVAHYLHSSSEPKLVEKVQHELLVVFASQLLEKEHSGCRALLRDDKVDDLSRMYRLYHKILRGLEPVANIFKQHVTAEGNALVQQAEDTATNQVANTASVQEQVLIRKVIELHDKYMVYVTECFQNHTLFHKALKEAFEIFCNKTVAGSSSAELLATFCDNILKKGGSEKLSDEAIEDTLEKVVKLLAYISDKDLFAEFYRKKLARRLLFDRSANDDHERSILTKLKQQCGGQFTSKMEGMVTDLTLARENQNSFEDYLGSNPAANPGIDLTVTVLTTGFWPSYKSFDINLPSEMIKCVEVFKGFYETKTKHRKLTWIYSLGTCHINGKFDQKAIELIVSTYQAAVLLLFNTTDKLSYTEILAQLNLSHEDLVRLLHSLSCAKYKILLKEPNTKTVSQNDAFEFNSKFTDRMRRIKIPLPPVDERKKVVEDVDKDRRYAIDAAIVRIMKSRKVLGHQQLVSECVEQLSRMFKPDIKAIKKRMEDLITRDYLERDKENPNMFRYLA
UniProt Q7XA73: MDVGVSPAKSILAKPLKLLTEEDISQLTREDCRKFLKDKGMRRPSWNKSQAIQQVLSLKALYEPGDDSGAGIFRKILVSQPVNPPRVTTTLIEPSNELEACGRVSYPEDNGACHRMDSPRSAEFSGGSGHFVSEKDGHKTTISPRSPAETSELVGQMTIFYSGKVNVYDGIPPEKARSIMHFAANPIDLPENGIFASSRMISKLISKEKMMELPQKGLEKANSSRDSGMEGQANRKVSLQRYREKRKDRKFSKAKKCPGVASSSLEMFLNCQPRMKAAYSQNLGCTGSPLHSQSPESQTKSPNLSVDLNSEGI
UniProt Q8GY55: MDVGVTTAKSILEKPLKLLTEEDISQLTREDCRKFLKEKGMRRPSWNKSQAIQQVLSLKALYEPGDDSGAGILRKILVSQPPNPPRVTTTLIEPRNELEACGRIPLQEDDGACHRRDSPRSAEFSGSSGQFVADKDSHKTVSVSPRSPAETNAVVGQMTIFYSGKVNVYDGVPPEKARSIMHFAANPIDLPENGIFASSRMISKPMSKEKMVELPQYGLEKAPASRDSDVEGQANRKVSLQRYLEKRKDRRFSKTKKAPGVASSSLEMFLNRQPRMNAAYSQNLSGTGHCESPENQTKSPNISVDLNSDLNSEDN

The target of assay [1] is T1, SAP as two-hybrid bait (pGBKT7) (Arabidopsis thaliana) (UniProt Q9FKH1).
T1 sequence: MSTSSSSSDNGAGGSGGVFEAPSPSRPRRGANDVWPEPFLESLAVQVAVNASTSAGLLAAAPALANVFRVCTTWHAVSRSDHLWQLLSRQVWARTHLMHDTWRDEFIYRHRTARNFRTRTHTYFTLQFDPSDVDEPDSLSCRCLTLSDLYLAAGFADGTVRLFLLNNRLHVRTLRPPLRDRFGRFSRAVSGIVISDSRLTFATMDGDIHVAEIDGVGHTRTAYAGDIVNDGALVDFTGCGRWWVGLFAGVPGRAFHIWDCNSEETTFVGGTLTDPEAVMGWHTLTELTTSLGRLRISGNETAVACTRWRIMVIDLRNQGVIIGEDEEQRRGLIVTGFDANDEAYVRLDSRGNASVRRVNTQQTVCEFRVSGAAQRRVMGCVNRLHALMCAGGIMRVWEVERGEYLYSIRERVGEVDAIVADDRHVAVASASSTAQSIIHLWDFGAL
Nature of the assay: two-hybrid; Matchmaker Gold; SAP and domain derivatives as bait in pGBKT7, ASK1, ASK2 and DA1 as prey in pGADT7; yeast strain Y2HGold; selective medium SD/-Ade/-His/-Leu/-Trp.

The target of assay [2] is T2, GST-SAP (Arabidopsis thaliana) (UniProt Q9FKH1).
T2 sequence: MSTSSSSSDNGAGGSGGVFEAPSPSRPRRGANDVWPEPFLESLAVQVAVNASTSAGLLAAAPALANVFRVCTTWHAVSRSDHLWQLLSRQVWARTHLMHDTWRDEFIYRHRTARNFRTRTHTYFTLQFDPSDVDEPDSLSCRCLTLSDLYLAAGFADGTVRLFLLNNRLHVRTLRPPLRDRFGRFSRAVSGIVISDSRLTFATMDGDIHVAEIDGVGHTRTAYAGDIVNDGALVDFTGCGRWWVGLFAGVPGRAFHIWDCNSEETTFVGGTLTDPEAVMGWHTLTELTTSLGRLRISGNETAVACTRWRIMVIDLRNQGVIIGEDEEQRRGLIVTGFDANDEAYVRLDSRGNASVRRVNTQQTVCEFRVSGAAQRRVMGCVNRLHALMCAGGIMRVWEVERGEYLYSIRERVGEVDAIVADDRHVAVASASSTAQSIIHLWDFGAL
Nature of the assay: pull-down; bacterial lysates with ~30 μg GST-SAP and ~30 μg His-ASK1 or His-ASK2 combined; glutathione sepharose, 4 °C 1 h; washed five times with TGH buffer (50 mM HEPES pH 7.5, 150 mM NaCl, 1% Triton X-100); anti-His blot.

The target of assay [3] is GST-GUS (negative control) (UniProt P05804). Described as above.
In assay [4] the target is T3, GFP-SAP expressed transiently in N. benthamiana leaves (Arabidopsis thaliana) (UniProt Q9FKH1).
T3 sequence: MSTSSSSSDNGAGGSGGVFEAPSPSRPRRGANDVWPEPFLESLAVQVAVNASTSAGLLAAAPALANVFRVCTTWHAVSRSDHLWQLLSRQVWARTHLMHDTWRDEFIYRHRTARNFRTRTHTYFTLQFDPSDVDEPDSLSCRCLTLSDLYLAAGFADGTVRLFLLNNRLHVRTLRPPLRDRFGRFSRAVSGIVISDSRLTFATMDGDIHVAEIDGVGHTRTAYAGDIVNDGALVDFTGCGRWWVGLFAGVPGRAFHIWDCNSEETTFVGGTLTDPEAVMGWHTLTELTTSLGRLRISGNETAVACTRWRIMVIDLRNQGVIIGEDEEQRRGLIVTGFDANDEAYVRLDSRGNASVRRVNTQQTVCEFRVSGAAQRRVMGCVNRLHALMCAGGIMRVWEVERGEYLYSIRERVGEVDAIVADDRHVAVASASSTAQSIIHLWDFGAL
Nature of the assay: co-IP; transient co-expression in N. benthamiana leaves; total proteins with GFP-Trap-A 1 h at 4 °C; anti-GFP and anti-Myc blots.

For assay [5], the target named is T4, GFP-SAP (STERILE APETALA) from 35S:GFP-SAP transgenic Arabidopsis plants (Arabidopsis thaliana) (UniProt Q9FKH1).
T4 sequence: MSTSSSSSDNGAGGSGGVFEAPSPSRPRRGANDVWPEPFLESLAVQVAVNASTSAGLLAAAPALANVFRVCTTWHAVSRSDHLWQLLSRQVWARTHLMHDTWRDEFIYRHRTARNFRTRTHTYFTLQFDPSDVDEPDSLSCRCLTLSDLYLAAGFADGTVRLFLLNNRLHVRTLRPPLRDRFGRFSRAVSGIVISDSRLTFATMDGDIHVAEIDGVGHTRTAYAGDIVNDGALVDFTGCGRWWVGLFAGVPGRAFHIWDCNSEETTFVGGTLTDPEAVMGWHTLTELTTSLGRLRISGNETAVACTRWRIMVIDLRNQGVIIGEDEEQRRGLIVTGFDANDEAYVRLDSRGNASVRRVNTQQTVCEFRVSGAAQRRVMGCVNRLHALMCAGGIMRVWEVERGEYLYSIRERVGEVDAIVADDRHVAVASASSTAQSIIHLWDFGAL
Nature of the assay: co-IP; total proteins of leaves of transgenic Arabidopsis plants (35S:GFP-SAP or 35S:GFP crossed with 35S:Myc-PPD1 or 35S:Myc-PPD2) with GFP-Trap-A agarose 1 h at 4 °C; anti-GFP and anti-Myc blots.

Assay [6] deals with T5, nYFP-SAP (Arabidopsis thaliana) (UniProt Q9FKH1).
T5 sequence: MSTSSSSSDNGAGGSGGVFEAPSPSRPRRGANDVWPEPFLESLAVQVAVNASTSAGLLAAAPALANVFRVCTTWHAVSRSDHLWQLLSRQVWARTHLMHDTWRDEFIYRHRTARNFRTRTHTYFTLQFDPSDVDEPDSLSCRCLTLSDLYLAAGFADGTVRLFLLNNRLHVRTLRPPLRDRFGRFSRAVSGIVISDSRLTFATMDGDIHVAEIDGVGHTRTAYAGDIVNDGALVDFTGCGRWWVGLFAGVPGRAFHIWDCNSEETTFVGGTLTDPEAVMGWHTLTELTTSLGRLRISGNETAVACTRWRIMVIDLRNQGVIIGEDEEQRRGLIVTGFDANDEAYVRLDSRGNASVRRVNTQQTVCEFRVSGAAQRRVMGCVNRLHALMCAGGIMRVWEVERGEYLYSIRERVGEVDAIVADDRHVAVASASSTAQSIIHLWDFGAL
Nature of the assay: split reporter; BiFC: nYFP and cYFP fusions co-infiltrated into N. benthamiana leaves, observed after 50 h by confocal microscopy.

In assay [7] the target is T1, SAP as two-hybrid bait (pGBKT7) (Arabidopsis thaliana). Nature of the assay: two-hybrid; Matchmaker Gold; SAP and domain derivatives as bait in pGBKT7, ASK1, ASK2 and DA1 as prey in pGADT7; yeast strain Y2HGold; selective medium SD/-Ade/-His/-Leu/-Trp. The source holds these as a separate data set.
Assay [8] concerns the target T6, MBP-SAP (Arabidopsis thaliana) (UniProt Q9FKH1).
T6 sequence: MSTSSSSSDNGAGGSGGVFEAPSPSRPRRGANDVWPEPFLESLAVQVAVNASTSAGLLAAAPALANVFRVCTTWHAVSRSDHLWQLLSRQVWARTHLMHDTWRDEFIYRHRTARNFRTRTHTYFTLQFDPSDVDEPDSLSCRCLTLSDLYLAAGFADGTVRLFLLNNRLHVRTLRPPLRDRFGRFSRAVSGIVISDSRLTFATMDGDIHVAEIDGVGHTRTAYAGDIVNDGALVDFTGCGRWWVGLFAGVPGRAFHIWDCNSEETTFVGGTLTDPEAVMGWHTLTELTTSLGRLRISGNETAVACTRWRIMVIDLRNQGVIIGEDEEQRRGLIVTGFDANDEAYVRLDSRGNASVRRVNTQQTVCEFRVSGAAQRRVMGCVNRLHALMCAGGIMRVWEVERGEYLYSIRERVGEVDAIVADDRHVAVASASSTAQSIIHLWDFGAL
Nature of the assay: pull-down; bacterial lysates with ~30 μg MBP-SAP and ~20 μg DA1-His combined; amylase resin (New England Biolabs), 4 °C 1 h; washed five times with TGH buffer; anti-MBP and anti-His blots.

Assay [9] deals with GFP-ASK2 (Arabidopsis thaliana) (UniProt Q9FHW7). Nature of the assay: co-IP; transient co-expression in N. benthamiana leaves; total proteins with GFP-Trap-A 1 h at 4 °C; anti-GFP and anti-Myc blots.
Assay [10] deals with GFP-ASK1 (Arabidopsis thaliana) (UniProt Q39255). The description is as above.

Read-outs that look alike come from different tables or passages of the source. No constants are given. Whether binding was seen depends on the method and setting. For part of these data: Binding seen in cells or lysates may run through a third protein. Some binding calls cover weakened binding; strength is not graded here. For part of these data: Tags and fused reporters may be left off the sequences shown.

Turning to “ASK1-AD (two-hybrid prey, pGADT7) (from UniProt Q39255 1-160)”, the binding entry in [1] is on record as “binds”.

Consider His-ASK1 (from UniProt Q39255 1-160), for which the binding result in assay [2] is reported as “binds”; in [3], “no binding”.

For the molecule Myc-CUL1 (from UniProt Q94AH6 1-738), the binding result in assay [4] is recorded as “binds”.

With Myc-PPD1 (from UniProt Q7XA73 1-313), the binding entry in [5] is on record as “binds”.

Take Myc-PPD2 (from UniProt Q8GY55 1-315): the binding entry in assay [5] is “binds”.

cYFP-PPD1 (from UniProt Q7XA73 1-313): the binding entry in assay [6] is given as “binds”.

For the molecule cYFP-PPD2 (from UniProt Q8GY55 1-315), the binding result in [6] is given as “binds”.

B1: DA1-AD (two-hybrid prey, pGADT7) (protein, UniProt P0C7Q8 1-532)
chain: MGWFNKIFKGSNQRLRVGNNKHNHNVYYDNYPTASHDDEPSAADTDADNDEPHHTQEPSTSEDNTSNDQENEDIDRAIALSLLEENQEQTSISGKYSMPVDEDEQLARALQESMVVGNSPRHKSGSTYDNGNAYGAGDLYGNGHMYGGGNVYANGDIYYPRPITFQMDFRICAGCNMEIGHGRFLNCLNSLWHPECFRCYGCSQPISEYEFSTSGNYPFHKACYRERYHPKCDVCSHFIPTNHAGLIEYRAHPFWVQKYCPSHEHDATPRCCSCERMEPRNTRYVELNDGRKLCLECLDSAVMDTMQCQPLYLQIQNFYEGLNMKVEQEVPLLLVERQALNEAREGEKNGHYHMPETRGLCLSEEQTVSTVRKRSKHGTGKWAGNITEPYKLTRQCEVTAILILFGLPRLLTGSILAHEMMHAWMRLKGFRTLSQDVEEGICQVMAHKWLDAELAAGSTNSNAASSSSSSQGLKKGPRSQYERKLGEFFKHQIESDASPVYGDGFRAGRLAVHKYGLRKTLEHIQMTGRFPV
As to B1, the binding result in assay [7] was “no binding”.

B2: DA1-His (protein, UniProt P0C7Q8 1-532)
chain: MGWFNKIFKGSNQRLRVGNNKHNHNVYYDNYPTASHDDEPSAADTDADNDEPHHTQEPSTSEDNTSNDQENEDIDRAIALSLLEENQEQTSISGKYSMPVDEDEQLARALQESMVVGNSPRHKSGSTYDNGNAYGAGDLYGNGHMYGGGNVYANGDIYYPRPITFQMDFRICAGCNMEIGHGRFLNCLNSLWHPECFRCYGCSQPISEYEFSTSGNYPFHKACYRERYHPKCDVCSHFIPTNHAGLIEYRAHPFWVQKYCPSHEHDATPRCCSCERMEPRNTRYVELNDGRKLCLECLDSAVMDTMQCQPLYLQIQNFYEGLNMKVEQEVPLLLVERQALNEAREGEKNGHYHMPETRGLCLSEEQTVSTVRKRSKHGTGKWAGNITEPYKLTRQCEVTAILILFGLPRLLTGSILAHEMMHAWMRLKGFRTLSQDVEEGICQVMAHKWLDAELAAGSTNSNAASSSSSSQGLKKGPRSQYERKLGEFFKHQIESDASPVYGDGFRAGRLAVHKYGLRKTLEHIQMTGRFPV
With B2, in [8], the binding entry is “no binding”.

B3: Myc-SAP (protein, UniProt Q9FKH1 1-446)
chain: MSTSSSSSDNGAGGSGGVFEAPSPSRPRRGANDVWPEPFLESLAVQVAVNASTSAGLLAAAPALANVFRVCTTWHAVSRSDHLWQLLSRQVWARTHLMHDTWRDEFIYRHRTARNFRTRTHTYFTLQFDPSDVDEPDSLSCRCLTLSDLYLAAGFADGTVRLFLLNNRLHVRTLRPPLRDRFGRFSRAVSGIVISDSRLTFATMDGDIHVAEIDGVGHTRTAYAGDIVNDGALVDFTGCGRWWVGLFAGVPGRAFHIWDCNSEETTFVGGTLTDPEAVMGWHTLTELTTSLGRLRISGNETAVACTRWRIMVIDLRNQGVIIGEDEEQRRGLIVTGFDANDEAYVRLDSRGNASVRRVNTQQTVCEFRVSGAAQRRVMGCVNRLHALMCAGGIMRVWEVERGEYLYSIRERVGEVDAIVADDRHVAVASASSTAQSIIHLWDFGAL
With B3, the binding result in assay [9] and in [10] was “binds” each time.
